# ± gives the standard deviation. This is a selection; strong and weak results do not stand in their true shares.
# System: MIWI (PIWIL1) piRISC loaded with piRNA #1 (30 nt)
# Experiment: pre-steady-state target cleavage rate (min^-1); MIWI and MILI are mouse PIWI proteins and EfPiwi is from a freshwater sponge; tags in brackets are library labels; higher = faster piRNA-guided slicing of the target
# Conditions: guide: piRNA #1 5'p-UGAGGUAGUAGGUUGUAUAGUAUCCAGAGG; auxiliary factor: 500 nM mouse GTSF1
# In short: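 The pre-steady-state cleavage rate came from a burst-and-steady-state fit to pooled data from three Cleave-'n-Seq trials, in which uncleaved targets were sequenced and normalised to depth and to weakly complementary targets. Each reaction held 0.1 nM transcribed, DNA-blocked target RNA library and 1 nM active affinity-purified piRISC carrying one synthetic guide, with or without 500 nM GTSF1 partner protein, in HEPES–potassium acetate buffer at 33 °C for 0–8 or 0–960 min. k3 was capped at 0.0001 min^-1.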
row,Sequence,pre-steady-state target cleavage rate
1,CCUCUGGAUACUAAUCAACCUACUACCUCA,1.58 ± 0.097
2,GGUCUGGAUACUAUACAACCUACGUACCUCA,0.831 ± 0.085
3,GGAGUGGAUACAAUACAACCUUCUACCUCA,0.604 ± 0.033
4,CCUCUGGAUACUAUGACAACCUACUACCUCA,1.58 ± 0.095
5,GGUCUGGAUUCAAUACAACCUACUACCUCA,1.08 ± 0.069
6,GGAGACCUUACCAUACAACCUACUACCUCA,0.923 ± 0.062
7,GGUGUGGAAACUAUACAACCUACUACCUCA,1.65 ± 0.082
8,CCUCUGGAUUCUAUACAACCUUCUACCUCA,0.52 ± 0.027
9,GGAGAGGAUAGUAUACAACCAACUACCUCA,0.0443 ± 0.0091
10,GGAGACCUUACAAUACAACCUACUACCUGA,0.161 ± 0.032
11,GGAGACCAUACUAAUCAACCUACUACCUCA,0.458 ± 0.067
12,CCUCUGGAUACUAUACAUGCUACUACCUCA,1.14 ± 0.068
13,GGAGACCUAACUAUACAACCUACCACCUCA,0.623 ± 0.062
14,GGAGACGAAUACUAUACAACCUACUACCUCA,1.76 ± 0.097
15,GGAGACCUAUCUAUACAACCUACUACCUCA [g2:g20:cont:t1A],1.12 ± 0.11
16,GGAGACCUAACAAUACAAGCUACUACCUCA,0.399 ± 0.12
